Measured values from PubChem BioAssay AID2101 (National Center for Advancing Translational Sciences (NCATS), 2009).
Among all 330,000 compounds or so, about 300 (0.091%) were called active. This list was built around the results that the source calls inconclusive (neither active nor inactive); the mix of calls is not that of the screen. The call rests on the fitted dose curve; in most records, active means well fitted inhibition curve with a large enough effect; inconclusive means small, poorly fitted or top-dose-only effect, or effect the other way, or another doubt; inactive means no such curve, though single readings can be large or run the other way. Potencies of inconclusive entries are left out as doubtful fits.

These compounds were tested against Lysosomal acid glucosylceramidase (Homo sapiens) (UniProt P04062) (assay: qHTS Assay for Inhibitors and Activators of N370S glucocerebrosidase as a Potential Chaperone Treatment of Gaucher Disease). Settings: N370S GC spleen homogenate, 4MU-glucoside fluorescence; activity change, negative = inhibition: at 59.4 µM (top of the series) unless noted.
Potency means the concentration at half of the fitted maximal effect.
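Wherever activity change, negative = inhibition is given: 0% = full enzyme activity and -100% = no enzyme basal.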

Row | Structure (SMILES) | Potency | activity change, negative = inhibition
1 | O=C(Nc1cccc(Cl)c1)OCCN1CCN(Cc2ccccc2)CCC1=O | inconclusive [inhibitor, single point] | 
2 | CC1CCC(NC(=O)CCS(=O)(=O)c2ccc3c(c2)NC(=O)C(C)S3)CC1 (centres undefined) | inconclusive [inhibitor, partial curve] | 
3 | CNC(=O)/C(C#N)=C/c1c(N2CCCCCC2)nc2ccccn2c1=O | inconclusive [activator, partial curve] | 
4 | Cc1c(N=Cc2cccs2)c(=O)n(-c2ccccc2)n1C |  | inactive: -2.91%
5 | CSc1ccc(CN(C)C(=O)c2cc3ccccc3o2)cc1 | inconclusive [activator, single point] | 
6 | O=C1CN(C(=O)c2ccc(Cl)c(S(=O)(=O)N3CCc4ccccc43)c2)c2ccccc2N1 | inconclusive [inhibitor, single point] | 
7 | CCC(=O)Oc1ccc2c(C)cc(=O)oc2c1C | inconclusive [activator, partial curve] | 
8 | NC1=NC[C@@H](Cc2ccc(O)cc2)N1CCc1cccc2ccccc12 | inconclusive [inhibitor, partial curve] | 
9 | CCOc1ccc(OCC)c(S(=O)(=O)NCCOC23CC4CC(CC(C4)C2)C3)c1 | inconclusive [activator, partial curve, poor fit] | 
10 | CCCc1nnc(NC(=O)c2cc3ccccc3o2)s1 |  | inactive: -0.498%
11 | CC(C)N(C(=O)Nc1ccc2nsnc2c1)C(C)C |  | inactive: 3.9%
12 | Cc1ccc(-c2cc(C(=O)NCCN3CCOCC3)c3ccccc3n2)o1 | inconclusive [activator, single point] | 
13 | O=C(COc1ccc2c(c1)OCO2)Nc1ccccc1C(F)(F)F |  | inactive: 4.55%
14 | COc1ccc(C2N3CC4(C)CN2CC(C)(C3)C4)cc1OC (centres undefined) | inconclusive [inhibitor, single point] | 
15 | Nc1cc(C(=O)OCC(=O)N2CCOCC2)ccc1Cl |  | inactive: -10.4%
16 | CC(=O)c1c(C)[nH]c(C(=O)OCC(=O)NCCC2=CCCCC2)c1C | inconclusive [inhibitor, partial curve] | 
17 | CCc1cc(C(=O)Nc2ccc(C)cc2Br)cs1 |  | inconclusive: 29.8% [activator]
18 | N/C(=N\OC(=O)COc1ccc2ccccc2c1Br)c1ccccn1 |  | inactive: 12.9%
19 | CC(CCN1C(Nc2ccccc2)=NC[C@@H]1Cc1ccccc1)c1ccccc1 (some centres undefined) | inconclusive [inhibitor, single point] | 
20 | O=C(N/N=C/c1ccccn1)c1sc2ccccc2c1Cl | inconclusive [activator, partial curve] | 
21 | COC(=O)[C@H](C)[C@@H]1C[C@@]1(C)[C@@H](NC(=O)OCc1ccccc1)c1ccccc1 | inconclusive [activator, partial curve] | 
22 | Cc1ccc(CSc2nc3ccsc3c(=O)n2Cc2ccccn2)cc1 | inconclusive [activator, single point] | 

Row | Structure (SMILES) | Potency | activity change, negative = inhibition
23 | CCOC(=O)COc1ccccc1C1Nc2ccccc2C(=O)N1c1cccc(Cl)c1 (centres undefined) | inconclusive [activator, single point] | 
24 | COC(=O)c1c(NC(=O)CN2CCCc3ccccc32)sc(C)c1C | inconclusive [activator, partial curve] | 
25 | COc1ccc(CNC(=O)CN(c2cc(C)cc(C)c2)S(=O)(=O)c2c(C)[nH]c(=O)[nH]c2=O)cc1 | inconclusive [inhibitor, partial curve] | 
26 | O=C(c1cccnc1)N1C2CCC1CC(O)(c1ccc(F)cc1)C2 (centres undefined) | inconclusive [activator, partial curve] | 
27 | COC(=O)[C@@H]1CC2=CC(=O)CC[C@]2(C)[C@@]23O[C@@H]2C[C@@]2(C)[C@H](CC[C@@]24CCC(=O)O4)[C@@H]13 |  | inactive: 3.26%
28 | CSc1ccc2c(c1)C(N1CCN(C)CC1)Cc1ccccc1S2 (centres undefined) | active: 17.8 µM | 
29 | CC(C)CC(c1nnnn1C1CCCCC1)N1CCN(c2ncccn2)CC1 (centres undefined) |  | inconclusive: 30.7% [activator]
30 | Cc1ccc(Nc2cc(C)nc3ccc(C)cc23)cc1 | inconclusive [inhibitor, partial curve] | 
31 | Cc1sc(NC(=O)c2ccccc2)c(C(c2ccccn2)N2CCN(CCO)CC2)c1C (centres undefined) |  | inactive: 10.7%
32 | Fc1ccc(-c2ccnc3nc(N4CCOCC4)nn23)cc1 | inconclusive [inhibitor, full curve, poor fit] | 
33 | COc1ccc(/C=N/NC(=O)c2ccccc2OCc2ccccc2)c(OC)c1 | inconclusive [activator, partial curve] | 
34 | CCCCN1C(=O)/C(=C/C=C2/CC(C)(C)CN2C)SC1=S | inconclusive [activator, single point] | 
35 | O=C(Nc1ccc(OC(F)F)c(Cl)c1)Nc1ccc2c(c1)OCO2 | inconclusive [activator, partial curve, poor fit] | 
36 | COC(=O)c1c(NC(=O)Cc2cccs2)sc2c1CCC(C)C2 (centres undefined) | inconclusive [activator, partial curve] | 
37 | CCc1cc2cc(C)ccc2nc1SCC(=O)N1CC(=O)Nc2ccccc21 | inconclusive [activator, single point] | 
38 | Cc1noc(C)c1CSc1nc2ccccc2c(=O)n1-c1ccccc1 | inconclusive [activator, partial curve] | 
39 | O=C(N/N=C/c1ccco1)c1ccccc1OCc1ccc(Br)cc1 | inconclusive [activator, partial curve] | 
40 | Cc1cc(-c2ccccc2)n(-c2ccccc2)n1 |  | inactive: -4.5%
41 | COc1ccc(C(=O)c2oc3ccc(OC)cc3c2N)cc1 |  | inactive: 17.3%
42 | Cc1ccc(OCCn2c(=S)[nH]c3ccccc32)c(C(C)C)c1 | inconclusive [activator, single point] | 
43 | CCOC(=O)CN1C(=O)/C(=C/c2c(F)cccc2Cl)Oc2ccccc21 | inconclusive [activator, partial curve] | 
44 | Cc1cc(/C=C2\SC(=S)NC2=O)c(C)[nH]1 | inconclusive [inhibitor, single point] | 
